In publication PMC12040169 (PLOS Biology, 2025):
This is one part of the list.

What follows are molecules tested on T1, C. trachomatis L2/434/Bu expressing GFP (CTL2-GFP). Details: total inclusion area; 28.5 h, 10 µM; inhibitor.
T1 construct: L2/434/Bu GFP intracellular growth in HeLa cells
Set-up: species or system HeLa; C. trachomatis total inclusion area by high-content imaging, normalised to DMSO
Outline: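 Imaging read-out: GFP inclusions and Hoechst nuclei captured by high-content imaging after fixation. Inclusion area/number = chlamydial growth; nuclei count = host cell viability. MIC calculated per earlier method.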
For `Nn1c(COc2ccccc2)nnc1SCC(=O)c1ccc2c(c1)CCCC2` [CBK268466], the “% of control remaining” value was 75.5264.
For `O=[N+]([O-])c1ccc(N2CCN(S(=O)(=O)c3ccc4ccccc4c3)CC2)cc1NCc1ccco1` [CBK264417], the “% of control remaining” value was 112.685.
In the case of `Cc1cc(OC(F)(F)F)ccc1NS(=O)(=O)c1ccc(-c2ccon2)s1` [CBK062361], the “% of control remaining” value is reported as 99.1125.
With `COc1ccc(S(=O)(=O)N2CCCCC2)cc1NC(=O)c1ccc(-c2nnn[nH]2)cc1` [CBK297128] the “% of control remaining” value was 92.144.
With `Cc1cc(C)nc(N2CCC(CC(=O)N3CCCCC3CN3CCCC3)CC2)n1` (stereo not shown) [CBK286254] the “% of control remaining” value was 108.969.
`CC[C@H]1CN(C(=O)Nc2cccc(OC)c2)CC[C@H]1CC(=O)O` [CBK288778] was tested, and the “% of control remaining” value was 90.1495.
`COc1cccc2cc(C(=O)N3CCN(CCO)CC3)c(=O)oc12` [CBK293932] was tested, and the “% of control remaining” value was 102.368.
For `O=C(c1ccccc1)N1C[C@@H](c2ccsc2)[C@@H]2CN(Cc3cccc(Cl)c3)CC[C@@H]21` [CBK285603], the “% of control remaining” value was 62.6633.
`CCc1c(C)nc2c(C(=O)N3CCOCC3)cnn2c1C` [CBK162134] was tested, and the “% of control remaining” value was 91.2767.
With `CN1CCN(C(=O)CN(Cc2ccccc2)S(C)(=O)=O)CC1` [CBK265745] the “% of control remaining” value was 67.1746.
With `CC1(C)[C@H]2CC[C@]1(C)[C@@H](OCCNc1ccccc1)C2` [CBK021967] the “% of control remaining” value was 61.6808.
`CC(=O)Nc1ccc(Nc2cc(C)nc(-n3nc(C)cc3C)n2)cc1` [CBK287746] was tested, and the “% of control remaining” value was 74.3254.
`O=C(Cc1csc(-c2ccc(Cl)cc2)n1)Nc1ccccn1` [CBK107364] was tested, and the “% of control remaining” value was 95.7685.
With `COc1ccc(NC(=O)Nc2nn(Cc3ccc(Cl)cc3Cl)cc2Br)cc1OC` [CBK266930] the “% of control remaining” value was 116.663.
`Cc1ccc(S(=O)(=O)Nc2ccc(Nc3cc(-c4ccc(CNC(=O)OC(C)(C)C)cc4)ncn3)cc2)cc1` [CBK090967] was tested, and the “% of control remaining” value was 111.591.
In the case of `O=C(Nc1ccc(OC(F)(F)F)cc1)c1cnc(-c2ccc(Cl)cc2)c(-c2ccc(O)cc2)c1` [CBK037485], the “% of control remaining” value is reported as 120.772.
With `NS(=O)(=O)c1ccc(NC(=O)C2CCCN(S(=O)(=O)c3ccc(Cl)cc3)C2)cc1` (stereo not shown) [CBK266813] the “% of control remaining” value was 102.894.
`Cc1nccn1CCN(C)C(=O)c1ccc2c(c1)ncn2C` [CBK281993] was tested, and the “% of control remaining” value was 94.5504.
`COCCOc1nccnc1N1CCNCC1` [CBK001903G] was tested, and the “% of control remaining” value was 64.0269.
`CC(Sc1nc(N)cc(N)n1)C(=O)c1ccc(F)c(F)c1` (stereo not shown) [CBK296928] was tested, and the “% of control remaining” value was 88.9635.
With `Cc1csc2ncc(C(=O)Nc3ccc(OC(F)(F)F)cc3)c(=O)n12` [CBK287457] the “% of control remaining” value was 102.718.
`O=C(c1ccc(F)cc1)C1CCN(Cc2ncc[nH]2)CC1` [CBK149135] was tested, and the “% of control remaining” value was 94.8781.
`Cc1cc(C(=O)NCCc2ccc(S(=O)(=O)NC(=O)NC3CCCCC3)cc2)n[nH]1` [CBK023997] was tested, and the “% of control remaining” value was 51.9061.
In the case of `Cc1cc(=O)c2ccccc2n1CC(=O)N1CCC2(CCOCC2)CC1` [CBK306869], the “% of control remaining” value is reported as 65.0577.
With `CC(C)[C@@H](CO)n1c(=O)[nH]c2ncc(-c3cccc4cccnc34)nc21` [CBK064848] the “% of control remaining” value was 119.872.
In the case of `CCOc1ccc(Cl)cc1CN(C)C(=O)NC(c1ncnn1C)C(C)C` (stereo not shown) [CBK307110], the “% of control remaining” value is reported as 86.3447.
With `CN(C)c1ncc(CNc2nc(O)c3c(n2)CCCC3)cn1` [CBK305460] the “% of control remaining” value was 73.995.
With `COc1ccc(CCCNC(=N)N)cc1Cl` [CBK261404G] the “% of control remaining” value was 77.7024.
For `O=C(O)c1cc(-n2c(S)nnc2-c2cnccn2)ccc1Cl` [CBK269285], the “% of control remaining” value was 107.892.
For `CCn1c(C)nnc1SCC(=O)Nc1cc(C(F)(F)F)ccc1Cl` [CBK304382], the “% of control remaining” value was 67.1691.
With `O=C(NCC1(N2CCOCC2)CCCCC1)c1ccccc1C(=O)c1ccc(F)cc1` [CBK297938] the “% of control remaining” value was 69.7528.
For `CC1CN(Cc2c(C(F)(F)F)[nH]c3ncccc23)CC(C)O1` (stereo not shown) [CBK285344], the “% of control remaining” value was 77.2177.
For `CCOc1ccccc1NC(=O)NC(=O)C1CCN(CCCc2ccc3c(c2)OCO3)CC1` [CBK034924], the “% of control remaining” value was 103.1.
For `COc1ccc(C(=O)c2c[nH]c3ccccc23)cc1` [CBK111451], the “% of control remaining” value was 125.415.
`Nc1cccc2c1C(=O)N(c1ccccc1C(=O)O)C2=O` [CBK287220] was tested, and the “% of control remaining” value was 99.4346.
For `CCN(CCO)c1ccc(Nc2cc(-c3ccsc3)ncn2)cc1` [CBK091000], the “% of control remaining” value was 69.2329.
With `O=c1n(Cc2ccccc2F)nc2nnc(-c3ccccc3)c(-c3ccccc3)n12` [CBK286179] the “% of control remaining” value was 108.864.
In the case of `CCOC(=O)C1(C2CCCCC2)CCN(C(=O)CC2NC(=O)NC2=O)CC1` (stereo not shown) [CBK136938], the “% of control remaining” value is reported as 95.8536.
`O=C(O)CCCSCC(=O)Nc1ccccc1` [CBK276905] was tested, and the “% of control remaining” value was 106.353.
In the case of `O=[N+]([O-])c1ccc(CN2CCN(c3nccnc3OCCN3CCOCC3)CC2)cc1` [CBK082892T], the “% of control remaining” value is reported as 94.6401.
For `O=C(CSc1nnc(SCc2cccc3ccccc23)s1)c1ccc(F)cc1` [CBK266218], the “% of control remaining” value was 92.1262.
For `Cn1c2ccccc2c2cc(/C=C(/NC(=O)c3ccccc3)C(=O)Nc3cccc(O)c3)ccc21` [CBK261449], the “% of control remaining” value was 65.6038.
`CN(C)CCN1C(=O)C(O)=C(C(=O)c2ccc(S(=O)(=O)N3CCOCC3)cc2)C1c1ccc(F)cc1` (stereo not shown) [CBK264683] was tested, and the “% of control remaining” value was 113.56.
For `CCN1CCN(C(=O)CN(Cc2ccc(Cl)cc2)S(C)(=O)=O)CC1` [CBK269263], the “% of control remaining” value was 101.373.
`Brc1ccc(-c2nc(NCCCN3CCOCC3)cc(-c3ccccc3)n2)cc1` [CBK261712] was tested, and the “% of control remaining” value was 80.0262.
For `Cc1ccc(-n2cnnn2)c(S(=O)(=O)N2CCOCC2)c1` [CBK268297], the “% of control remaining” value was 100.777.
With `CC1CCN(c2ccc(C(=O)CCCO)cc2)CC1` [CBK010358] the “% of control remaining” value was 112.658.
With `O=C(O)CSc1nnc(-c2ccco2)n1-c1ccccc1` [CBK131685] the “% of control remaining” value was 85.0182.
`CCNC(=O)Nc1cc2cccnc2nc1-c1cc(F)cc(F)c1` [CBK070638] was tested, and the “% of control remaining” value was 77.6213.
With `O=C(NCCCc1ccccc1Cl)c1ccc(=O)n(CC(=O)N2CCCCC2)c1` [CBK286078] the “% of control remaining” value was 113.786.
With `Nc1ncc(-c2cc3ccccc3o2)nc1-c1ccc(C=O)cc1` [CBK064126] the “% of control remaining” value was 123.147.
For `CC(=O)Nc1ccc(S(=O)(=O)N2CCN(S(=O)(=O)c3ccccc3[N+](=O)[O-])CC2)cc1` [CBK264314], the “% of control remaining” value was 103.828.
For `O=[N+]([O-])c1cccc(NS(=O)(=O)c2ccc(Cl)c(Cl)c2)c1` [CBK044396], the “% of control remaining” value was 90.2776.
`CCn1c(SCC(=O)Nc2ccc(C(C)=O)cc2)nnc1-c1cc(Br)ccc1O` [CBK268515] was tested, and the “% of control remaining” value was 132.136.
In the case of `COc1cc(CNCc2cccs2)cc(Cl)c1OCC(N)=O` [CBK270237C], the “% of control remaining” value is reported as 116.133.
With `CC(C)(C)C(=O)CN1CCC2(CC1)OCCc1c2[nH]c2ccc(F)cc12` [CBK040237] the “% of control remaining” value was 96.3276.
For `NC(=O)CN1CCC2(CC1)CN(CC(N)=O)c1ccccc12` [CBK126789], the “% of control remaining” value was 78.7433.
For `NC(=O)CCN1CCC(Cc2ccccc2)CC1` [CBK138317], the “% of control remaining” value was 119.894.
For `Cc1cc2c(cc1C)C(O)CC1(CCN(C(=O)c3ccco3)CC1)O2` (stereo not shown) [CBK282839], the “% of control remaining” value was 127.97.
In the case of `CNC(=O)c1cccc(NS(=O)(=O)c2sc3ccc(Cl)cc3c2C)c1` [CBK160383], the “% of control remaining” value is reported as 93.9987.
`Cn1c2ccccc2n2c(SCc3nc4ccc([N+](=O)[O-])cc4[nH]3)nnc12` [CBK266853] was tested, and the “% of control remaining” value was 98.5943.
In the case of `N#Cc1ccc(C2NC(=O)c3ccccc3O2)cc1` (stereo not shown) [CBK288180], the “% of control remaining” value is reported as 94.7682.
`CCNC(=S)/N=C(\NCc1cccnc1)Nc1nc(C)cc(C)n1` [CBK267212] was tested, and the “% of control remaining” value was 80.0321.
For `Cc1csc2c(C3CCCN(C(=O)c4ccccn4)C3)nc(C)n12` (stereo not shown) [CBK284594], the “% of control remaining” value was 116.321.
With `Cc1sc2nc(NCCO)[nH]c(=O)c2c1C` [CBK018257] the “% of control remaining” value was 89.4862.
With `CCNc1cc2ccccc2c(-c2ccc(OC)c(C)c2)n1` [CBK089644] the “% of control remaining” value was 95.8398.
With `CCC1(CC)C(=O)N=C(C(C)(C)C)NC1=O` [CBK076759] the “% of control remaining” value was 93.5681.
With `C[C@@H](Cn1nnc2ccccc21)NC(=O)Cc1cccc(F)c1` [CBK282306] the “% of control remaining” value was 97.44.
`CC(C)(C)c1ccccc1NC(=O)N(CCCN)Cc1cc(F)cc(F)c1` [CBK034697C] was tested, and the “% of control remaining” value was 43.7462.
With `O=C(O)c1ccccc1-c1ccccc1C(=O)NCCCO` [CBK267197] the “% of control remaining” value was 116.579.
`O=C(Cn1c(NCCCO)nc2ccccc21)c1cccs1` [CBK023894B] was tested, and the “% of control remaining” value was 80.8113.
For `CC(CN1CCCCC1)OC(=O)COc1ccc(Br)cc1` (stereo not shown) [CBK265326C], the “% of control remaining” value was 100.954.
For `COc1ccc(-n2c(=O)c3ccccc3n(CC(=O)NC3CCCC3)c2=O)cc1` [CBK287574], the “% of control remaining” value was 109.304.
`Nc1cc(N)nc(SCC(=O)Nc2ccc(Oc3ccccc3)cc2)n1` [CBK266749] was tested, and the “% of control remaining” value was 90.4088.
For `O=C(c1cccs1)N1CC(n2nc(-c3cccs3)ccc2=O)C1` [CBK283347], the “% of control remaining” value was 97.4784.
`COc1cc(/C=N/Nc2nc(-c3ccccc3)cc(-c3ccc(OC)c(OC)c3)n2)ccc1O` [CBK262841] was tested, and the “% of control remaining” value was 32.6828.
For `CCOC(=O)CNS(=O)(=O)c1cccs1` [CBK044958], the “% of control remaining” value was 121.384.
`O=[N+]([O-])c1ccccc1OCCNCc1ccccc1` [CBK265511G] was tested, and the “% of control remaining” value was 89.4615.
In the case of `CCOC(=O)N1CCC(NC(=O)N2CCN(CCc3ccccc3)CC2)CC1` [CBK158938], the “% of control remaining” value is reported as 112.772.
